Whole data set: some 33,000 sequences, median “E-score (-0.5 to 0.5)” near -0.011, cut for the highest 2% near 0.28. The list shows a part of the results.
What follows are sequences tested against T1, Gcr1 (UniProt P07261) (assay: PBM E-score (8-mer binding enrichment) (E-score (-0.5 to 0.5)); higher = stronger / more preferred TF binding; most listed sequences are background and not binding sites). Conditions: protein concentration: 100 nM; construct: GST-full length.
T1 sequence: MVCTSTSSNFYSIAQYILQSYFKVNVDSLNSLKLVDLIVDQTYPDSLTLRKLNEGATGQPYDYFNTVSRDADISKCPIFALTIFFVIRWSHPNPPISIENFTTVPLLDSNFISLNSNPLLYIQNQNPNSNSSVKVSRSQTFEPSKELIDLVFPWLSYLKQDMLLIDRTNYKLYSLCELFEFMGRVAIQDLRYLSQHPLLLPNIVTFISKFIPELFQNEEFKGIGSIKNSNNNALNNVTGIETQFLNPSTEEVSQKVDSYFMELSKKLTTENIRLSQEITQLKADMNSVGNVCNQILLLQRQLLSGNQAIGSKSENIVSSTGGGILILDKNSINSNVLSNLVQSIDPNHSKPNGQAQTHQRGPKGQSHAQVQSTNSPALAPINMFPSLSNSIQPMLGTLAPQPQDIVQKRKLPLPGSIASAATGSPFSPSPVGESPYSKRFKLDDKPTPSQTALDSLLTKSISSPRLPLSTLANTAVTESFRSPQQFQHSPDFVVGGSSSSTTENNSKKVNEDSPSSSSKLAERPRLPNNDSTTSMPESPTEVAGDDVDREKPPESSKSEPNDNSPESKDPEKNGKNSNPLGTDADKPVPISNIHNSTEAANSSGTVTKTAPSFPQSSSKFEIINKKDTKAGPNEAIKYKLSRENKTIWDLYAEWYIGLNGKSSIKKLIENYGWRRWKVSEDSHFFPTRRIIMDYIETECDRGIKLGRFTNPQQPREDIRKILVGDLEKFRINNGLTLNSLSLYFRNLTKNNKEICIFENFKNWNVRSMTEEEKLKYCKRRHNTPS
How it was run: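 PURExpress in vitro transcription/translation supplied GST-tagged yeast transcription factors, either full-length or DNA-binding domain. Applied at about 100-200 nM to universal all-10-mer Agilent arrays double-stranded by primer extension, the bound protein was detected with fluorescent anti-GST. E-scores, modified Wilcoxon-Mann-Whitney statistics, were given by the Universal PBM Analysis Suite to ungapped eight-base words pooled with their reverse complements after masliner normalisation.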
In the case of CATGCGCC, the “PBM E-score” value is reported as -0.22.
In the case of GGTAGCAC, the “PBM E-score” value is reported as 0.0683.
With GTTTCGGA the “PBM E-score” value was 0.199.
AGCATACA was tested, and the “PBM E-score” value was -0.0119.
For GAATGCGA, the “PBM E-score” value was 0.0264.
CTATCCAG was tested, and the “PBM E-score” value was -0.101.
AGTAGCTA was tested, and the “PBM E-score” value was 0.181.
With CACAACGC the “PBM E-score” value was -0.043.
With CCTCCCAG the “PBM E-score” value was -0.269.
ATTATTTC was tested, and the “PBM E-score” value was 0.00814.
AGGCCGTG was tested, and the “PBM E-score” value was -0.129.
With AAGTAATT the “PBM E-score” value was 0.104.
For GGGATCAA, the “PBM E-score” value was 0.146.
In the case of GACGGACA, the “PBM E-score” value is reported as -0.264.
For AGCCTTAT, the “PBM E-score” value was 0.0318.
For GAGAGAGC, the “PBM E-score” value was -0.133.
With CGGCCGAA the “PBM E-score” value was -0.188.
CTCAAGCC was tested, and the “PBM E-score” value was -0.0864.
With CGGTGGAG the “PBM E-score” value was -0.0338.
For ACGACTGA, the “PBM E-score” value was -0.0299.
CAACTCGA was tested, and the “PBM E-score” value was -0.0754.
With AGTAGGCG the “PBM E-score” value was 0.205.
For CTATAGTA, the “PBM E-score” value was 0.0817.
In the case of TGAAACCA, the “PBM E-score” value is reported as 0.106.
In the case of ATTGTCTC, the “PBM E-score” value is reported as 0.00727.
CGCCATGA was tested, and the “PBM E-score” value was -0.128.
With TACTGTAA the “PBM E-score” value was 0.0376.
For AATTTCCG, the “PBM E-score” value was 0.155.
In the case of ATATCAGG, the “PBM E-score” value is reported as 0.0654.
With ACCCTCAA the “PBM E-score” value was -0.169.
In the case of GGGACCCA, the “PBM E-score” value is reported as 0.303.
With CGAGATGC the “PBM E-score” value was 0.0363.
For ATCCTTGA, the “PBM E-score” value was 0.0086.
In the case of GGTGGGAA, the “PBM E-score” value is reported as 0.0991.
In the case of CCTCCGCC, the “PBM E-score” value is reported as -0.168.
For AATAGCTG, the “PBM E-score” value was -0.06.
With CACGCGCA the “PBM E-score” value was -0.0427.
ATTTCAAA was tested, and the “PBM E-score” value was 0.00653.
ACCGAGGG was tested, and the “PBM E-score” value was -0.315.
AAGAAATG was tested, and the “PBM E-score” value was 0.0597.
With CCTCACCA the “PBM E-score” value was 0.143.
With AGGGCTCG the “PBM E-score” value was -0.314.
For ATTTTTGA, the “PBM E-score” value was 0.0473.
AAGTGGTA was tested, and the “PBM E-score” value was 0.176.
With ATTTGGTA the “PBM E-score” value was 0.23.
In the case of CGATTAAA, the “PBM E-score” value is reported as 0.13.
In the case of GATCTGAC, the “PBM E-score” value is reported as -0.152.
In the case of CTACTCTA, the “PBM E-score” value is reported as -0.077.
With AGCGCGGC the “PBM E-score” value was -0.0419.
For CGGGTAAA, the “PBM E-score” value was 0.112.
For CCCGGGTC, the “PBM E-score” value was -0.0913.
With CATCCTCG the “PBM E-score” value was 0.0352.
With CTATTGAG the “PBM E-score” value was 0.0808.
For GATTAATC, the “PBM E-score” value was -0.129.
With AGCGTTCC the “PBM E-score” value was 0.0882.
With ACTTAATG the “PBM E-score” value was 0.00444.
For AACTATTA, the “PBM E-score” value was 0.0296.
CTGGTCCC was tested, and the “PBM E-score” value was -0.131.
For CCAACGAG, the “PBM E-score” value was 0.00967.
ATATGCAA was tested, and the “PBM E-score” value was 0.0123.
GTCGCTAA was tested, and the “PBM E-score” value was 0.0152.
With ATATTATG the “PBM E-score” value was 0.132.
TTTCGAAA was tested, and the “PBM E-score” value was -0.054.
In the case of AGCCGATG, the “PBM E-score” value is reported as 0.0755.
For AAATTAAC, the “PBM E-score” value was 0.0597.
With ACGGAGAT the “PBM E-score” value was -0.0711.
In the case of ATTAGACA, the “PBM E-score” value is reported as 0.0379.
For AGGTACTG, the “PBM E-score” value was -0.0802.
For GGGACCAC, the “PBM E-score” value was 0.21.
For ACGCATAT, the “PBM E-score” value was -0.15.
In the case of CAATTATG, the “PBM E-score” value is reported as 0.145.
With ACTGGCAT the “PBM E-score” value was 0.124.
For CGGGGCCA, the “PBM E-score” value was -0.0236.
For CACACCTA, the “PBM E-score” value was -0.0263.
In the case of ATCAAACA, the “PBM E-score” value is reported as -0.0652.
With AATCCCAA the “PBM E-score” value was 0.225.
With ATATTGAT the “PBM E-score” value was 0.155.
For CCTCGTTC, the “PBM E-score” value was -0.0945.
In the case of TATTACGA, the “PBM E-score” value is reported as 0.109.
For CAGTCGCA, the “PBM E-score” value was -0.107.
ACGCATCT was tested, and the “PBM E-score” value was 0.151.
GCATGTCC was tested, and the “PBM E-score” value was -0.186.
For ACGCATAG, the “PBM E-score” value was -0.117.
With ATCGTGTA the “PBM E-score” value was 0.156.
With CTCGGAAC the “PBM E-score” value was 0.0711.
With CTGTTCTA the “PBM E-score” value was -0.09.
CATGATAA was tested, and the “PBM E-score” value was -0.00435.
In the case of CGGCTCAG, the “PBM E-score” value is reported as 0.113.
With TGTAGACA the “PBM E-score” value was -0.0678.
With ACAAGCGC the “PBM E-score” value was -0.115.
For CTGCCACC, the “PBM E-score” value was -0.00834.
ACCGAATC was tested, and the “PBM E-score” value was -0.0242.
In the case of AATTGTAC, the “PBM E-score” value is reported as 0.00173.
For ACGGCCCG, the “PBM E-score” value was -0.186.
CAGAGCAG was tested, and the “PBM E-score” value was -0.0062.
For ACAAGAAT, the “PBM E-score” value was 0.252.
For CTTAAGCC, the “PBM E-score” value was -0.206.
For ACTTCACA, the “PBM E-score” value was -0.145.
For CCCAACGC, the “PBM E-score” value was 0.0251.
CAACATAC was tested, and the “PBM E-score” value was -0.0428.
With GAGTGCGA the “PBM E-score” value was -0.0623.
With GCATCCAC the “PBM E-score” value was 0.452.
In the case of GGTTTAAC, the “PBM E-score” value is reported as -0.0625.
ACTTTGGA was tested, and the “PBM E-score” value was 0.208.
In the case of CTGGGAAC, the “PBM E-score” value is reported as 0.146.
With ACTGTTTG the “PBM E-score” value was -0.053.
For AGTATACA, the “PBM E-score” value was -0.0609.
GACTTAAA was tested, and the “PBM E-score” value was -0.103.
For ACTCTCTC, the “PBM E-score” value was -0.288.
ATGCGTTG was tested, and the “PBM E-score” value was 0.0138.
CTATGAAA was tested, and the “PBM E-score” value was 0.0846.
With ATATAACA the “PBM E-score” value was -0.00593.
CCATATAC was tested, and the “PBM E-score” value was 0.0567.
CAGCAGTC was tested, and the “PBM E-score” value was -0.0813.
AGGGCGGC was tested, and the “PBM E-score” value was 0.0238.
For ACACTTCT, the “PBM E-score” value was -0.161.
In the case of ATTGATAG, the “PBM E-score” value is reported as -0.156.
For AACCTTAC, the “PBM E-score” value was -0.00831.
For CTGTGGTA, the “PBM E-score” value was -0.00229.
In the case of GCCAGAAA, the “PBM E-score” value is reported as 0.236.
In the case of ACTGTCCG, the “PBM E-score” value is reported as -0.14.
In the case of TACAACAA, the “PBM E-score” value is reported as -0.00277.
In the case of TGCGTACA, the “PBM E-score” value is reported as -0.0703.
With CGCTGAGA the “PBM E-score” value was 0.0709.
AATCTACC was tested, and the “PBM E-score” value was 0.0103.
With GTCTGTTA the “PBM E-score” value was -0.183.
In the case of GTTCATAA, the “PBM E-score” value is reported as 0.0771.
In the case of GACACCTA, the “PBM E-score” value is reported as 0.0961.
With CGTGTGAA the “PBM E-score” value was -0.0605.
With GCGATCTA the “PBM E-score” value was -0.061.
For CCAAGGAG, the “PBM E-score” value was 0.0296.
CAGGTTCA was tested, and the “PBM E-score” value was -0.346.
In the case of CTGGACTA, the “PBM E-score” value is reported as -0.0579.
AGCCATAT was tested, and the “PBM E-score” value was -0.113.
ATCGTGCA was tested, and the “PBM E-score” value was -0.138.
In the case of ATCGAGAC, the “PBM E-score” value is reported as -0.108.
For AATGGTTA, the “PBM E-score” value was -0.0784.
With CCACGCCG the “PBM E-score” value was -0.106.
In the case of AGATAATC, the “PBM E-score” value is reported as -0.0235.
GATCCAGA was tested, and the “PBM E-score” value was 0.173.
CAGCGATA was tested, and the “PBM E-score” value was 0.222.
AAGGCAGA was tested, and the “PBM E-score” value was -0.162.
CTCTGGTC was tested, and the “PBM E-score” value was -0.121.
For GTCTCCAC, the “PBM E-score” value was 0.08.
For ACGTACTC, the “PBM E-score” value was -0.0721.
In the case of CCCTATAA, the “PBM E-score” value is reported as 0.141.
With CGATCCTC the “PBM E-score” value was -0.0506.
TCCATAAA was tested, and the “PBM E-score” value was 0.251.
In the case of CAGCCTAA, the “PBM E-score” value is reported as 0.193.
AAGGGACT was tested, and the “PBM E-score” value was -0.202.
GACACAGA was tested, and the “PBM E-score” value was -0.154.
In the case of AAGATTCA, the “PBM E-score” value is reported as -0.0204.
In the case of AAGACTAT, the “PBM E-score” value is reported as -0.146.
TATTAATA was tested, and the “PBM E-score” value was 0.277.
In the case of CCATCGAG, the “PBM E-score” value is reported as -0.198.
With CCGCTCAG the “PBM E-score” value was 0.0454.
With CCAACTAC the “PBM E-score” value was 0.14.
With CTTCGCGC the “PBM E-score” value was 0.0687.
With CAACACGG the “PBM E-score” value was 0.0698.
With ACGGACAC the “PBM E-score” value was 0.0529.
For CTCCTCGA, the “PBM E-score” value was -0.185.
